Measured values reported in the supplement of paper PMC8728848.
This is one part of the list.

Tests used:
Experiment in all cases: glycan array binding signal (z-score within array); higher = stronger binding
Details in all cases: glycan notation: IUPAC condensed, linker removed
[1] = molecular target: Fuc(a1-2)[Gal(a1-3)]Gal(b1-3)GlcNAc(b1-3)GalNAc
In short: (§1)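 The Consortium for Functional Glycomics database supplied 3228 glycan arrays, of which those lacking an available protein sequence were dropped. The binding signal, a within-array Z-score, was averaged across arrays of the same protein sequence and across linkers. Negative scores can be read as non-binding.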

[2] = molecular target: Fuc(a1-2)[Gal(a1-3)]Gal(b1-3)GlcNAc(b1-6)GalNAc
In short: as §1

[3] = molecular target: Fuc(a1-2)[Gal(a1-3)]Gal(b1-4)Glc
In short: as §1

[4] = molecular target: Fuc(a1-2)[Gal(a1-3)]Gal(b1-4)GlcNAc
In short: as §1

[5] = molecular target: Fuc(a1-2)[Gal(a1-3)]Gal(b1-4)GlcNAc(b1-2)Man
In short: as §1

[6] = molecular target: Fuc(a1-2)[Gal(a1-3)]Gal(b1-4)GlcNAc(b1-2)Man(a1-3)[Fuc(a1-2)[Gal(a1-3)]Gal(b1-4)GlcNAc(b1-2)Man(a1-6)]Man(b1-4)GlcNAc(b1-4)GlcNAc
In short: as §1

[7] = molecular target: Fuc(a1-2)[Gal(a1-3)]Gal(b1-4)GlcNAc(b1-2)Man(a1-3)[Fuc(a1-2)[Gal(a1-3)]Gal(b1-4)GlcNAc(b1-2)Man(a1-6)]Man(b1-4)GlcNAc(b1-4)[Fuc(a1-6)]GlcNAc
In short: as §1

[8] = molecular target: Fuc(a1-2)[Gal(a1-3)]Gal(b1-4)GlcNAc(b1-3)GalNAc
In short: as §1

[9] = molecular target: Fuc(a1-2)[Gal(a1-3)]Gal(b1-4)GlcNAc(b1-3)[Fuc(a1-2)[Gal(a1-3)]Gal(b1-4)GlcNAc(b1-6)]GalNAc
In short: as §1

[10] = molecular target: Fuc(a1-2)[Gal(a1-3)]Gal(b1-4)GlcNAc(b1-6)GalNAc
In short: as §1

[11] = molecular target: Fuc(a1-2)[Gal(a1-3)]Gal(b1-4)[Fuc(a1-3)]Glc
In short: as §1

[12] = molecular target: Fuc(a1-2)[Gal(a1-3)]Gal(b1-4)[Fuc(a1-3)]GlcNAc
In short: as §1

[13] = molecular target: Fuc(a1-2)[Gal(a1-3)]Gal(b1-4)[Fuc(a1-3)]GlcNAc(b1-3)GalNAc
In short: as §1

[14] = molecular target: Fuc(a1-2)[Gal(a1-4)]Gal(b1-4)GalNAc
In short: as §1

[15] = molecular target: Fuc(a1-2)[Gal(a1-4)]Gal(b1-4)GlcNAc
In short: as §1

[16] = molecular target: Fuc(a1-2)[GalNAc(a1-3)]Gal
In short: as §1

[17] = molecular target: Fuc(a1-2)[GalNAc(a1-3)]Gal(b1-3)GalNAc(a1-3)[Fuc(a1-2)]Gal(b1-4)GlcNAc
In short: as §1

[18] = molecular target: Fuc(a1-2)[GalNAc(a1-3)]Gal(b1-3)GalNAc(b1-3)Gal(a1-4)Gal(b1-4)Glc
In short: as §1

[19] = molecular target: Fuc(a1-2)[GalNAc(a1-3)]Gal(b1-3)GlcNAc
In short: as §1

[20] = molecular target: Fuc(a1-2)[GalNAc(a1-3)]Gal(b1-3)GlcNAc(b1-2)Man(a1-3)[Fuc(a1-2)[GalNAc(a1-3)]Gal(b1-3)GlcNAc(b1-2)Man(a1-6)]Man(b1-4)GlcNAc(b1-4)GlcNAc
In short: as §1

[21] = molecular target: Fuc(a1-2)[GalNAc(a1-3)]Gal(b1-3)GlcNAc(b1-2)Man(a1-3)[Fuc(a1-2)[GalNAc(a1-3)]Gal(b1-3)GlcNAc(b1-2)Man(a1-6)]Man(b1-4)GlcNAc(b1-4)[Fuc(a1-6)]GlcNAc
In short: as §1

[22] = molecular target: Fuc(a1-2)[GalNAc(a1-3)]Gal(b1-3)GlcNAc(b1-3)GalNAc
In short: as §1

[23] = molecular target: Fuc(a1-2)[GalNAc(a1-3)]Gal(b1-3)GlcNAc(b1-6)GalNAc
In short: as §1

[24] = molecular target: Fuc(a1-2)[GalNAc(a1-3)]Gal(b1-4)Glc
In short: as §1

[25] = molecular target: Fuc(a1-2)[GalNAc(a1-3)]Gal(b1-4)GlcNAc
In short: as §1

[26] = molecular target: Fuc(a1-2)[GalNAc(a1-3)]Gal(b1-4)GlcNAc(b1-2)Man
In short: as §1

[27] = molecular target: Fuc(a1-2)[GalNAc(a1-3)]Gal(b1-4)GlcNAc(b1-2)Man(a1-3)[Fuc(a1-2)[GalNAc(a1-3)]Gal(b1-4)GlcNAc(b1-2)Man(a1-6)]Man(b1-4)GlcNAc(b1-4)GlcNAc
In short: as §1

[28] = molecular target: Fuc(a1-2)[GalNAc(a1-3)]Gal(b1-4)GlcNAc(b1-2)Man(a1-3)[Fuc(a1-2)[GalNAc(a1-3)]Gal(b1-4)GlcNAc(b1-2)Man(a1-6)]Man(b1-4)GlcNAc(b1-4)[Fuc(a1-6)]GlcNAc
In short: as §1

[29] = molecular target: Fuc(a1-2)[GalNAc(a1-3)]Gal(b1-4)GlcNAc(b1-3)Gal(b1-4)GlcNAc
In short: as §1

[30] = molecular target: Fuc(a1-2)[GalNAc(a1-3)]Gal(b1-4)GlcNAc(b1-3)Gal(b1-4)GlcNAc(b1-3)Gal(b1-4)GlcNAc
In short: as §1

[31] = molecular target: Fuc(a1-2)[GalNAc(a1-3)]Gal(b1-4)GlcNAc(b1-3)GalNAc
In short: as §1

[32] = molecular target: Fuc(a1-2)[GalNAc(a1-3)]Gal(b1-4)GlcNAc(b1-3)[Fuc(a1-2)[GalNAc(a1-3)]Gal(b1-4)GlcNAc(b1-6)]GalNAc
In short: as §1

[33] = molecular target: Fuc(a1-2)[GalNAc(a1-3)]Gal(b1-4)GlcNAc(b1-6)GalNAc
In short: as §1

[34] = molecular target: Fuc(a1-2)[GalNAc(a1-3)]Gal(b1-4)[Fuc(a1-3)]GlcNAc
In short: as §1

[35] = molecular target: Fuc(a1-2)[GalNAc(a1-3)]Gal(b1-4)[Fuc(a1-3)]GlcNAc(b1-3)GalNAc
In short: as §1

[36] = molecular target: Fuc(a1-2)[GalNAc(a1-4)]Gal(b1-4)GlcNAc
In short: as §1

[37] = molecular target: Fuc(a1-2)[GalNAc(b1-3)]Gal
In short: as §1

B1: Epa7 (Candida glabrata), Q6DTM6_CANGB (protein)
chain: MGSSHHHHHHSSGLVPRGSHMKDDYSSFLSNNNLGWTDPTEFPLGCSPNVTTPKNGLSMELYSYDLRKNGSYPCWDAAYLDPNYPRTGYKSHRLLAKVDGVTGNINFYYHATKGCTPEIDHLPASYNYPKPLTMTNFTMLLYGYFKPKVTGYHTFTISADDLLFVNFGAGNAFDCCKRESSADDFGNYQAYAVWGSQTAKDDLTVHLDAGLYYPIRIFFNNREYDAELSLTLKTESDSNPVIDFSDYFYSFDDTKDGCPGLVSYDTS
[1]
  glycan array binding signal (z-score): -0.232
[2]
  glycan array binding signal (z-score): -0.233
[3]
  glycan array binding signal (z-score): -0.25
[4]
  glycan array binding signal (z-score): -0.199
[5]
  glycan array binding signal (z-score): -0.206
[6]
  glycan array binding signal (z-score): -0.236
[7]
  glycan array binding signal (z-score): -0.241
[8]
  glycan array binding signal (z-score): -0.23
[9]
  glycan array binding signal (z-score): -0.208
[10]
  glycan array binding signal (z-score): -0.096
[11]
  glycan array binding signal (z-score): -0.224
[12]
  glycan array binding signal (z-score): -0.226
[13]
  glycan array binding signal (z-score): -0.201
[14]
  glycan array binding signal (z-score): 0.138
[15]
  glycan array binding signal (z-score): -0.084
[16]
  glycan array binding signal (z-score): -0.249
[17]
  glycan array binding signal (z-score): -0.007
[18]
  glycan array binding signal (z-score): -0.24
[19]
  glycan array binding signal (z-score): -0.251
[20]
  glycan array binding signal (z-score): -0.239
[21]
  glycan array binding signal (z-score): -0.232
[22]
  glycan array binding signal (z-score): -0.153
[23]
  glycan array binding signal (z-score): -0.229
[24]
  glycan array binding signal (z-score): -0.25
[25]
  glycan array binding signal (z-score): -0.257
[26]
  glycan array binding signal (z-score): -0.241
[27]
  glycan array binding signal (z-score): -0.241
[28]
  glycan array binding signal (z-score): -0.239
[29]
  glycan array binding signal (z-score): -0.235
[30]
  glycan array binding signal (z-score): -0.22
[31]
  glycan array binding signal (z-score): -0.231
[32]
  glycan array binding signal (z-score): -0.216
[33]
  glycan array binding signal (z-score): -0.221
[34]
  glycan array binding signal (z-score): -0.239
[35]
  glycan array binding signal (z-score): -0.052
[36]
  glycan array binding signal (z-score): -0.256
[37]
  glycan array binding signal (z-score): -0.236
